Measured values from the supplement of paper PMC7826260.
This is one part of the list. The data describe in vitro nicking of single-stranded DNA by Rep domains at 3 µM enzyme and 37 °C for 1 h; the strands have 90 letters, of which the middle is given. Uncut reads are compared with the no-enzyme pool on a log2 scale; uncut sequences lie near 0, cut ones below; no hit call is given. The scaling is to total reads; uncut strands gain when others are lost, and binding without cutting may add a little.

Key:
Test in all cases: uncleaved DNA left, log2 of reads against the no-enzyme library (log2 ratio); higher = less cleavage (more negative = more Rep cleavage of the k-mer); sequences stand for … in CTCGTCCG…ACCGGAGA
[1] = system: T1, Rep nickase domain of Muscovy duck circovirus
T1 sequence (residues 1-111, tag not shown): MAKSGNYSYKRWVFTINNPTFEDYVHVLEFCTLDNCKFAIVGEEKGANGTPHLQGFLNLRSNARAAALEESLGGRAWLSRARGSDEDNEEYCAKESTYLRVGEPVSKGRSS
Procedure: (§1)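 A pool of 90-nt single-stranded DNAs with seven random bases just before the constant AC of the nick site (name = the seven bases) was cut by 3 µM recombinant His6-SUMO-tagged Rep nickase domain (300 nM DNA, 50 mM HEPES pH 8.0, 50 mM NaCl, 1 mM MnCl2, 1 h, 37 °C, three replicates). Uncut DNA was amplified and sequenced.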

[2] = system: T2, Rep nickase domain of banana bunchy top virus
T2 sequence (residues 1-94, tag not shown): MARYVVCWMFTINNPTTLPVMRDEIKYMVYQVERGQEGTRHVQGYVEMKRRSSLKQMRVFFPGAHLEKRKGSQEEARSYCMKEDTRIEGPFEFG
Procedure: as §1

[3] = system: T3, Rep nickase domain of cabbage leaf curl virus
T3 sequence (residues 1-116, tag not shown): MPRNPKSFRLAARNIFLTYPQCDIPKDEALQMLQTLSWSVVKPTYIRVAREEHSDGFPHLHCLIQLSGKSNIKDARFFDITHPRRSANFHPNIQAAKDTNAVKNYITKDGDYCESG
Procedure: as §1

[4] = system: T4, Rep nickase domain of chickpea chlorotic dwarf virus
T4 sequence (residues 1-124, tag not shown): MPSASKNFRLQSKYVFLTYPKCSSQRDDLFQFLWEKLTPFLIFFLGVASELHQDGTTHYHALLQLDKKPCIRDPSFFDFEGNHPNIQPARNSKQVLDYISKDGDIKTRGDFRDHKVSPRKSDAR
Procedure: as §1

[5] = system: T5, Rep nickase domain of faba bean necrotic yellows virus
T5 sequence (residues 1-98, tag not shown): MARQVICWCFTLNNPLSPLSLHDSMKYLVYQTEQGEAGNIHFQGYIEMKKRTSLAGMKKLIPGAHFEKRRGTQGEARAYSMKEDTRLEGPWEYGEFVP
Procedure: as §1

[6] = system: T6, Rep nickase domain of maize striate mosaic virus
T6 sequence (residues 1-117, tag not shown): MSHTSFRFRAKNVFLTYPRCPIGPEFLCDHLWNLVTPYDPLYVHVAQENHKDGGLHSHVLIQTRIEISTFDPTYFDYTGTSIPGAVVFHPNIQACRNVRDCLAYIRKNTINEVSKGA
Procedure: as §1

[7] = system: T7, Rep nickase domain of porcine circovirus 2
T7 sequence (residues 2-116, tag not shown): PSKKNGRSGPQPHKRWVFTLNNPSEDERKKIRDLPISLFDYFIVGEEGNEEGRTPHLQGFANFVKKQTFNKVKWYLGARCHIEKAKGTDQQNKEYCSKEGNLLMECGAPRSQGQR
Procedure: as §1

[8] = system: T8, Rep nickase domain of tomato golden mosaic virus
T8 sequence (residues 1-124, tag not shown): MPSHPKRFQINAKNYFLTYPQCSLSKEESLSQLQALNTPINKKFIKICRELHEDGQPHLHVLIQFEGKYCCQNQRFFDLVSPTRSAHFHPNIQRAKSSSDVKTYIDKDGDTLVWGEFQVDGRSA
Procedure: as §1

[9] = system: T9, Rep nickase domain of tomato yellow leaf curl virus
T9 sequence (residues 1-136, tag not shown): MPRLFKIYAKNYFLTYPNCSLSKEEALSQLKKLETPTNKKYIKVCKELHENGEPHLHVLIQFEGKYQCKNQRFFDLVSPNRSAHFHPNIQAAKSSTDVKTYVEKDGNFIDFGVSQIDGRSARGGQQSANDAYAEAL
Procedure: as §1

[10] = system: T10, Rep nickase domain of wheat dwarf virus
T10 sequence (residues 1-137, tag not shown): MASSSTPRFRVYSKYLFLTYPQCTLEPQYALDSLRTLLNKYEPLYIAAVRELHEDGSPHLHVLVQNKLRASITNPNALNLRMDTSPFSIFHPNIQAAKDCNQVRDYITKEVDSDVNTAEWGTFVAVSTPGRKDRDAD
Procedure: as §1

Sequence	uncleaved DNA left (log2) [1]	uncleaved DNA left (log2) [2]	uncleaved DNA left (log2) [3]	uncleaved DNA left (log2) [4]	uncleaved DNA left (log2) [5]	uncleaved DNA left (log2) [6]	uncleaved DNA left (log2) [7]	uncleaved DNA left (log2) [8]	uncleaved DNA left (log2) [9]	uncleaved DNA left (log2) [10]
TTTCGTG	-0.0849	-0.0539	-0.623	-0.851	-0.0114	-1.12	0.16	-0.0826	-0.0561	-0.11
GCATCCT	-0.42	-0.00787	-0.0207	-1.27	-0.157	-0.00252	-0.452	-0.132	-0.0282	-0.126
CGTAAGC	-0.117	0.00874	0.273	0.685	-0.0197	0.0802	0.0415	0.0479	0.0383	-0.113
GAGTGCG	-0.0427	-0.0266	-0.528	0.708	-0.0195	-0.0208	0.104	-0.0921	-0.0363	-0.12
GGGATAA	0.101	0.12	0.945	2.16	0.0135	2.27	0.206	0.0479	0.0533	0.244
TAACTGG	0.0552	0.0415	0.0119	0.284	0.0504	0.361	0.124	0.0354	0.0539	0.0775
TCAGTTG	0.0991	0.067	0.0281	0.0447	0.0762	-0.4	0.234	0.107	0.027	0.121
ATCAAAT	-0.0316	0.086	0.0868	-0.572	-0.0958	-0.515	0.0636	0.0257	-0.0192	-0.00336
CGAGCAG	-0.113	0.0329	-0.132	0.0039	-0.0613	-0.296	-0.0119	0.00579	-0.0291	0.0237
ATTGCGT	0.0452	-0.0299	-0.0356	1.05	0.0238	0.989	0.0863	-0.151	0.13	-0.0554
CCGTCGG	0.00129	0.0494	0.443	1.26	0.00722	1.49	0.114	0.193	-0.0312	0.00868
CAGCGTG	0.213	0.136	-0.149	0.0571	0.0252	-0.24	0.246	0.0927	0.0475	-0.122
TAACAGG	0.246	0.155	0.161	0.784	0.104	0.916	0.243	0.201	0.00577	0.277
ACAGGAG	0.292	0.0927	-0.439	0.109	0.241	-0.561	0.361	0.27	0.314	0.244
GTTCCAA	-0.0473	0.0575	0.267	0.981	0.0166	1.77	0.154	0.012	0.1	0.0895
